{"source": "patent US11484525B2", "about": "(priority 2015, dated 2022)", "target": "MOR N127C (Homo sapiens (Human), UniProt P35372, N129C)", "sequence (P35372 whole entry N129C)": "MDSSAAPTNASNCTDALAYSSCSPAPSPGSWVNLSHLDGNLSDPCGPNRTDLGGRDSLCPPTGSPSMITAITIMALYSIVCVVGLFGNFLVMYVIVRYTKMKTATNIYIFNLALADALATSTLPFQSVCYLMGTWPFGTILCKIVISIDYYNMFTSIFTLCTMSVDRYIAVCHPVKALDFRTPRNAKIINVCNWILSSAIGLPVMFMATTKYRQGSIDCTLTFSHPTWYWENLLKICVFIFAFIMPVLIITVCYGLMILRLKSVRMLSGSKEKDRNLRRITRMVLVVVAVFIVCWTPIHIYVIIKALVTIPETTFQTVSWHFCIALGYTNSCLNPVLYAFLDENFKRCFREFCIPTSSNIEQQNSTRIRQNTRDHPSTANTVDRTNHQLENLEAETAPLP", "assay": "biochemical", "data": [{"compound": "C[C@H](CN1C(=O)C=CC1=O)NC(=O)NC[C@H](Cc1ccc(O)cc1)N(C)C", "note": "[DD 179, 1-((S)-2-(dimethylamino)-3-(4-hydroxyphenyl)propyl)-3-((R)-1-(2,5-dioxo-2,5-dihydro-1H-pyrrol-1-yl)propan-2-yl)urea]", "values": [{"measurement": "Ki", "result": 0.29, "unit": "µM"}]}]}
